Structures can show the parent of a compound that is named as a salt. In all, about 2,800 compounds were measured (“cell viability relative to vehicle”: median about 0.98, lowest 2% from about 0.45 on). This is one part of the list.

For the experiment, the system named is NCI-H2228 alectinib-DTP. The experiment in a line: cell viability relative to vehicle (fraction of vehicle); NCI-H2228 is an ALK-positive lung cancer line and DTP means drug-tolerant persister; higher = less growth inhibition. As to conditions: 100 nM; treatment time 6 days. A digest of the protocol: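 Each value is viability relative to vehicle-treated cells, measured as ATP with the CellTiter-Glo 3D Cell Viability Assay. Parental NCI-H2228 cells and drug-tolerant persisters (1000 nM targeted drug, 13 days) in 384-well plates received the 3114-agent TargetMol anti-cancer compound library at 100 nM, or DMSO, and were read 6 days later.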
With `CCCN(CCC)C(=O)C1=Cc2ccc(-c3ccc(C(=O)N4CCCC4)cc3)cc2N=C(N)C1` [Motolimod], the cell viability worked out at 1.07.

The compound `O=C(NCCO[N+](=O)[O-])c1cccnc1` [Nicorandil] gave a cell viability of 0.916.

Regarding `Cc1ccc(Cl)c(Nc2ccccc2C(=O)O)c1Cl` [Meclofenamate Sodium], the cell viability amounted to 0.958.

`CC1=C(/C=C/C(C)=C/C=C/C(C)=C/C=C/C=C(C)/C=C/C=C(C)/C=C/C2=C(C)CCCC2(C)C)C(C)(C)CCC1` [Beta-Carotene] showed a cell viability of 0.961. As for `CC[C@H]1OC(=O)[C@H](C)[C@@H](O[C@H]2C[C@@](C)(OC)[C@@H](O)[C@H](C)O2)[C@H](C)[C@@H](O[C@@H]2O[C@H](C)C[C@H](N(C)C)[C@H]2O)[C@](C)(O)C[C@@H](C)C(=O)[C@H](C)[C@@H](O)[C@]1(C)O` [Erythromycin], the figure is 1.14; as for `CC(C(=O)O)c1ccc(CC2CCCC2=O)cc1` (configuration not stated) [Loxoprofen], 1.21. As for `O=C(O)CCc1nc(-c2ccccc2)c(-c2ccccc2)o1` [Oxaprozin], the figure is 1.26; as for `O=C(c1cc(Cc2n[nH]c(=O)c3ccccc23)ccc1F)N1CCN(C(=O)C2CC2)CC1` [Olaparib], 1.07. As for `CC(C)(Oc1ccc(CCNC(=O)c2ccc(Cl)cc2)cc1)C(=O)O` [Bezafibrate], the figure is 1.07; as for `OCCN1CCN(CCCN2c3ccccc3Sc3ccc(C(F)(F)F)cc32)CC1` [Fluphenazine hydrochloride], 1.17. Regarding `c1ccc(CC2=NCCN2)cc1` [Tolazoline hydrochloride], the cell viability amounted to 1.01.

In the case of `COc1c(O)cc2occ(-c3ccc(O)cc3)c(=O)c2c1O` [Tectorigenin], the cell viability amounted to 1.02. The value for `CCc1ccc(CCOc2ccc(CC3SC(=O)NC3=O)cc2)nc1` (configuration not stated) [Pioglitazone] was 0.967; that for `Cc1ccc(N(CC2=NCCN2)c2cccc(O)c2)cc1` [Phentolamine mesilate] was 0.956.

In turn, `CC(C)Nc1cc(-c2c[nH]c(C(=O)N[C@H](CO)c3cccc(Cl)c3)c2)c(Cl)cn1` [Ulixertinib] came in with a cell viability of 1.06.

On to `c1ccc(-c2nc(-c3ccc(-c4nc(-c5ccccc5)c(-c5ccccc5)[nH]4)cc3)[nH]c2-c2ccccc2)cc1`, for which the cell viability is 0.986. As for `CO[C@H]1/C=C/O[C@@]2(C)Oc3c(C)c(O)c4c(O)c(c(/C=N/N5CCN(C)CC5)c(O)c4c3C2=O)NC(=O)/C(C)=C\C=C\[C@H](C)[C@H](O)[C@@H](C)[C@@H](O)[C@@H](C)[C@H](OC(C)=O)[C@@H]1C` [Rifampicin], the figure is 1.15; as for `CC(=O)C1=C(O)C=C2Oc3c(C(C)=O)c(O)c(C)c(O)c3C2(C)C1=O` (stereo in doubt) [Usnic Acid], 1.06; as for `CCCSc1ccc2[nH]c(NC(=O)OC)nc2c1` [Albendazole], 1.03. The value for `Cc1c(Cl)cccc1Nc1ccccc1C(=O)O` [Tolfenamic Acid] was 0.929.

Take `C(=N\NC1=NCCN1)/c1c2ccccc2c(/C=N/NC2=NCCN2)c2ccccc12` [Bisantrene]: the cell viability turned out to be 1.12.

In turn, `COCCCC/C(=N\OCCN)c1ccc(C(F)(F)F)cc1` [Fluvoxamine maleate] yielded a cell viability of 1.08.

Regarding `NC(=O)N[C@@H](CCC(=O)O)C(=O)O` [Carbaglu], the cell viability was 1.01.

In turn, `O=C1/C(=C/c2cccs2)CC/C1=C\c1cccs1` came in with a cell viability of 1.05. As for `O=C(Nc1cc(C(F)(F)F)cc(C(F)(F)F)c1)c1cc(Cl)ccc1O`, the figure is 1.05.

Consider `C[C@H](N[C@@H](CCc1ccccc1)C(=O)O)C(=O)N1CCC[C@H]1C(=O)O` [Enalaprilat Dihydrate], for which the cell viability was 1.12. Consider `NC(=O)N1CCC(CC(=O)N2CCC([C@H]3c4ncc(Br)cc4CCc4cc(Cl)cc(Br)c43)CC2)CC1` [Lonafarnib], for which the cell viability stood at 0.795. As for `CC1(C)CC[C@]2(C(=O)O)CC[C@]3(C)C(=CC[C@@H]4[C@@]5(C)CCC(=O)C(C)(C)[C@@H]5CC[C@]43C)[C@@H]2C1` [Oleanonic Acid], the figure is 1.02. The value for `CNC(=O)c1cc(Oc2ccc(NC(=O)c3cccc(C(F)(F)F)c3)cc2)ccn1` was 1.13; that for `CS(=O)(=O)c1ccc(C(=O)Nc2ccc(Cl)c(-c3ccccn3)c2)c(Cl)c1` [Vismodegib] was 0.988. The value for `COc1ccc(CC(C)NCC(O)c2ccc(O)c(NC=O)c2)cc1` (configuration not stated) [Formoterol] was 0.931; that for `COc1ccc(CC(C)NCC(O)c2ccc(O)c(NC=O)c2)cc1` (configuration not stated) [Formoterol Hemifumarate] was 0.876; that for `CC(C)C[C@H](NC(=O)[C@H](Cc1ccccc1)NC(=O)c1cnccn1)B(O)O` [Bortezomib] was 0.145. The compound `Cc1ccc2c(c1)C(=O)C1(O)CCN(c3ccccc3)C1=N2` (single isomer, unassigned; (-)) [(-)-Blebbistatin] had a cell viability of 0.955. As for `CC(CN1CC(=O)N(CN2CCOCC2)C(=O)C1)N1CC(=O)N(CN2CCOCC2)C(=O)C1` (configuration not stated) [Probimane], the figure is 0.977. The compound `COc1ccc(-c2coc3cc(O)ccc3c2=O)cc1` [Formononetin] registered a cell viability of 1.12. As for `CN1CCN(S(=O)(=O)c2ccc(-c3cnc(N)c(C(=O)Nc4cccnc4)n3)cc2)CC1`, the figure is 1.18. As to `O=C(NOCC1CC1)c1ccc(F)c(F)c1Nc1ccc(I)cc1Cl`, the cell viability was determined as 0.864. The value for `Nc1nc(F)nc2c1ncn2[C@@H]1O[C@H](COP(=O)(O)O)[C@@H](O)[C@@H]1O` [Fludarabine Phosphate] was 0.997. Take `COc1ccc(S(=O)(=O)/N=C2\C=CC=C\C2=C/C=C2C=CN(O)C=C2)cc1`: the cell viability stood at 0.935. As for `CCOC(=O)N1CCC(=C2c3ccc(Cl)cc3CCc3cccnc32)CC1` [Loratadine], the figure is 1.

Consider `NC(=O)c1ccccc1O` [Salicylamide], for which the cell viability was 1.16. `CC1(C)CCC(c2ccc(Cl)cc2)=C(CN2CCN(c3ccc(C(=O)NS(=O)(=O)c4ccc(N[C@H](CCN5CCOCC5)CSc5ccccc5)c(S(=O)(=O)C(F)(F)F)c4)cc3)CC2)C1` [Navitoclax]: the cell viability stood at 1.08. As for `CCCCCN(C)CCC(O)(P(=O)(O)O)P(=O)(O)O` [Ibandronate sodium], the figure is 1.01.

Consider `CCS(=O)(=O)Nc1ccc(Oc2ccc(F)cc2F)c(-c2cn(C)c(=O)c3[nH]ccc23)c1` [Mivebresib], for which the cell viability worked out at 0.736. As for `O=c1ccc2cc3ccoc3cc2o1` [Psoralen], the figure is 1.05; as for `Oc1ccc2c(c1)OC[C@]1(O)Cc3cc(O)c(O)cc3[C@H]21` [Brazilin], 1.11.

For the origin of these results see the supplement of paper PMC10600219.
